Publication PMC6602471
The other results are listed elsewhere or left out. At the low end of the ranking the order means little.

target: T1, ELK1 (UniProt P19419); assay: custom PBM; conditions: custom protein-binding microarray; buffer, salt, pH and temperature not stated; high values mean tight binding; double strand, one strand shown
T1 sequence: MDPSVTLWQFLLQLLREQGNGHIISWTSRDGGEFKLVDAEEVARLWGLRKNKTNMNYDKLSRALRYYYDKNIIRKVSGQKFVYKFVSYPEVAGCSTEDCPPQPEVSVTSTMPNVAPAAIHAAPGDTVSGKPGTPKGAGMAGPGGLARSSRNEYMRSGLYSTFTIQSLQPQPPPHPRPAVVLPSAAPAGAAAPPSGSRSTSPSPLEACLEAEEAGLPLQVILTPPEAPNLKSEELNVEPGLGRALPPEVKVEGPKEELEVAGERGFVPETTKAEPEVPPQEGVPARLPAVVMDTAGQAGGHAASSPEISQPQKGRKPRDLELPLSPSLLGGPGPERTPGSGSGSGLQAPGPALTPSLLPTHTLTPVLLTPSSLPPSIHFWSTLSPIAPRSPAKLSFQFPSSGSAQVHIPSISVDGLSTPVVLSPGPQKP

**Q.** With “CAGCATAGGACTTCTTCCCTGAAGCAATTGATAACAGTCTTGATTCGCTTGACGCTGCTG” as the sequence, how does the binding signal (log fluorescence intensity) read?
**A.** The binding signal (log fluorescence intensity) was 8.91.

**Q.** “GGAAAAAGGCCCCGGGTAACACCGGAAGTGGGCTTAGTCTTGATTCGCTTGACGCTGCTG” was tested. Which binding signal (log fluorescence intensity) did it give?
**A.** Its binding signal (log fluorescence intensity) is 12.6.

**Q.** How did the binding signal (log fluorescence intensity) turn out when “TCCGGCTACCTGCTCCACCCACTTCAGGCCTTGTAGGTCTTGATTCGCTTGACGCTGCTG” was run?
**A.** The binding signal (log fluorescence intensity) was 8.74.

**Q.** Which binding signal (log fluorescence intensity) does the source give for “CAGCATAGGACTACTTCCCTGAAGCAATTGATAACCGTCTTGATTCGCTTGACGCTGCTG” here?
**A.** The binding signal (log fluorescence intensity) was 9.22.

**Q.** “CAGCAGAGGACTTCTTCCCTGAAGCAATTGATAACCGTCTTGATTCGCTTGACGCTGCTG” was tested. Which binding signal (log fluorescence intensity) did it give?
**A.** The binding signal (log fluorescence intensity) was 8.97.

**Q.** “TACTGACTTATATATGCGAATGCACATGAACAGACCGTCTTGATTCGCTTGACGCTGCTG” was tested. Which binding signal (log fluorescence intensity) did it give?
**A.** The binding signal (log fluorescence intensity) was 8.97.

**Q.** Which binding signal (log fluorescence intensity) does the source give for “CTGGGACTCGACCCAACTCTGCCACGTGGGTCGTTTGTCTTGATTCGCTTGACGCTGCTG” here?
**A.** The binding signal (log fluorescence intensity) was 8.94.

**Q.** For “GATTAATTTCTGCCCTTATTCGCACGTGTCATAACAGTCTTGATTCGCTTGACGCTGCTG”, which binding signal (log fluorescence intensity) is on record?
**A.** Its binding signal (log fluorescence intensity) is 9.05.

**Q.** For “TACTGACTTATATATGCGAACGCACATGAATAGACCGTCTTGATTCGCTTGACGCTGCTG”, which binding signal (log fluorescence intensity) is on record?
**A.** The binding signal (log fluorescence intensity) was 8.74.

**Q.** For “GATTAATTTCTGCCCTTATTCGCACGTGCGATAACAGTCTTGATTCGCTTGACGCTGCTG”, which binding signal (log fluorescence intensity) is on record?
**A.** Its binding signal (log fluorescence intensity) is 8.75.

**Q.** “CTGGGACTTGACCCAACTCTGACACGTGGGTCGTTTGTCTTGATTCGCTTGACGCTGCTG” was tested. Which binding signal (log fluorescence intensity) did it give?
**A.** Its binding signal (log fluorescence intensity) is 8.86.

**Q.** “GTGTATAGGATCCCTTCCAACACACGTGTTAAAATGGTCTTGATTCGCTTGACGCTGCTG” was tested. Which binding signal (log fluorescence intensity) did it give?
**A.** The binding signal (log fluorescence intensity) was 8.96.

**Q.** For “CTGCATAGGACTTCTTCCCTGAAGCAATTGATAACCGTCTTGATTCGCTTGACGCTGCTG”, which binding signal (log fluorescence intensity) is on record?
**A.** The binding signal (log fluorescence intensity) was 8.94.

**Q.** Which binding signal (log fluorescence intensity) does the source give for “GTGTGTAGGATCCCATCCAACACACGTGTTAAAATGGTCTTGATTCGCTTGACGCTGCTG” here?
**A.** The binding signal (log fluorescence intensity) was 8.82.

**Q.** How did the binding signal (log fluorescence intensity) turn out when “TACTGACTTTTATATGCGAATGCACATGAATAGACCGTCTTGATTCGCTTGACGCTGCTG” was run?
**A.** Its binding signal (log fluorescence intensity) is 8.97.

**Q.** How did the binding signal (log fluorescence intensity) turn out when “TAGAGGGAAGACGGTTGTGGTAGTTCCGGGTATTAAGTCTTGATTCGCTTGACGCTGCTG” was run?
**A.** Its binding signal (log fluorescence intensity) is 11.2.

**Q.** How did the binding signal (log fluorescence intensity) turn out when “TGTCGGGTAAGGGAATGTGGATCACGTGAATGAAAAGTCTTGATTCGCTTGACGCTGCTG” was run?
**A.** The binding signal (log fluorescence intensity) was 8.96.

**Q.** With “CTGGGACTTGCCCCAACTCTGCCACGTGGGTCGTTTGTCTTGATTCGCTTGACGCTGCTG” as the sequence, how does the binding signal (log fluorescence intensity) read?
**A.** The binding signal (log fluorescence intensity) was 8.79.

**Q.** How did the binding signal (log fluorescence intensity) turn out when “GATTAGTTTCTGCCCTTATTCGCACGTGCCATAACAGTCTTGATTCGCTTGACGCTGCTG” was run?
**A.** The binding signal (log fluorescence intensity) was 8.93.

**Q.** For “CGGAAGTGTCGTAAACGTCGGATATCCGGTTCTTCAGTCTTGATTCGCTTGACGCTGCTG”, which binding signal (log fluorescence intensity) is on record?
**A.** Its binding signal (log fluorescence intensity) is 12.6.

**Q.** With “TGTCGGGTAAGGGAATGTAGATCACTTGAATGAAAAGTCTTGATTCGCTTGACGCTGCTG” as the sequence, how does the binding signal (log fluorescence intensity) read?
**A.** Its binding signal (log fluorescence intensity) is 8.78.

**Q.** How did the binding signal (log fluorescence intensity) turn out when “CTGGGACTTGACCCACCTCTGCCACGTGGGTCGTTTGTCTTGATTCGCTTGACGCTGCTG” was run?
**A.** Its binding signal (log fluorescence intensity) is 8.7.

**Q.** How did the binding signal (log fluorescence intensity) turn out when “TACTGACGTATATATGCGAATGCACATGAATAGACCGTCTTGATTCGCTTGACGCTGCTG” was run?
**A.** Its binding signal (log fluorescence intensity) is 8.77.

**Q.** For “TAAAGGGAAGACGGTTGTGGTAGTTCCGGGTATTAAGTCTTGATTCGCTTGACGCTGCTG”, which binding signal (log fluorescence intensity) is on record?
**A.** Its binding signal (log fluorescence intensity) is 11.1.

**Q.** Which binding signal (log fluorescence intensity) does the source give for “TAAAAGGAAGACGGTTGTGGTAGTTCCGGGTATTAAGTCTTGATTCGCTTGACGCTGCTG” here?
**A.** Its binding signal (log fluorescence intensity) is 11.8.

**Q.** For “CTGGGACTTGACCCAACTCTGCCACGAGGGTCGTTTGTCTTGATTCGCTTGACGCTGCTG”, which binding signal (log fluorescence intensity) is on record?
**A.** The binding signal (log fluorescence intensity) was 8.74.

**Q.** With “TAAAGGGAAGACGGTTGCGGTAGTTCCGGGTATTAAGTCTTGATTCGCTTGACGCTGCTG” as the sequence, how does the binding signal (log fluorescence intensity) read?
**A.** Its binding signal (log fluorescence intensity) is 11.3.

**Q.** “GCTGCTGCGGTGCATACCCCACCGGATCTGACCCCGGTCTTGATTCGCTTGACGCTGCTG” was tested. Which binding signal (log fluorescence intensity) did it give?
**A.** The binding signal (log fluorescence intensity) was 9.38.

**Q.** How did the binding signal (log fluorescence intensity) turn out when “GGAAAAAGGCCCAGTGTAACACCGGAAGTGGGCTTAGTCTTGATTCGCTTGACGCTGCTG” was run?
**A.** The binding signal (log fluorescence intensity) was 10.9.

**Q.** For “CGGCAGTGTCGTAAACGTCGGATATCCGGTTCTTCTGTCTTGATTCGCTTGACGCTGCTG”, which binding signal (log fluorescence intensity) is on record?
**A.** The binding signal (log fluorescence intensity) was 12.2.

**Q.** How did the binding signal (log fluorescence intensity) turn out when “CAGCATAGGACTTCTTCCCTGCAGCAATTGATAACCGTCTTGATTCGCTTGACGCTGCTG” was run?
**A.** The binding signal (log fluorescence intensity) was 8.88.

**Q.** For “GATTAATTTCTGCCCTTACTCGCACGTGCCATAACAGTCTTGATTCGCTTGACGCTGCTG”, which binding signal (log fluorescence intensity) is on record?
**A.** Its binding signal (log fluorescence intensity) is 8.76.

**Q.** Which binding signal (log fluorescence intensity) does the source give for “CTGGGACTTGACCCCACTCTGCCACGTGGGTCGTTTGTCTTGATTCGCTTGACGCTGCTG” here?
**A.** Its binding signal (log fluorescence intensity) is 8.7.

**Q.** With “CCGAAGTGTCGTAAACGTCGGATATCCGGTTCTTCTGTCTTGATTCGCTTGACGCTGCTG” as the sequence, how does the binding signal (log fluorescence intensity) read?
**A.** The binding signal (log fluorescence intensity) was 12.6.

**Q.** Which binding signal (log fluorescence intensity) does the source give for “CGGAAGTGTCGTAAACGTCGGATATCCGGTTCCTCTGTCTTGATTCGCTTGACGCTGCTG” here?
**A.** The binding signal (log fluorescence intensity) was 12.5.

**Q.** With “TCTGGCTACCAGCTCCACCCACTTCAGGCCTTGTAGGTCTTGATTCGCTTGACGCTGCTG” as the sequence, how does the binding signal (log fluorescence intensity) read?
**A.** Its binding signal (log fluorescence intensity) is 8.82.

**Q.** Which binding signal (log fluorescence intensity) does the source give for “CACAATTTTTACAGTAATGTAACACGCGTAACTCCTGTCTTGATTCGCTTGACGCTGCTG” here?
**A.** The binding signal (log fluorescence intensity) was 8.98.

**Q.** With “TGTCGGGTAAGGTAATGTAGATCACGTGAATGAAAAGTCTTGATTCGCTTGACGCTGCTG” as the sequence, how does the binding signal (log fluorescence intensity) read?
**A.** Its binding signal (log fluorescence intensity) is 8.86.

**Q.** “TAAAGGGAAGACGGTTGTGGTAGTTCCTGGTATTAAGTCTTGATTCGCTTGACGCTGCTG” was tested. Which binding signal (log fluorescence intensity) did it give?
**A.** The binding signal (log fluorescence intensity) was 9.32.

**Q.** “GCTGCTGCGGTGCATCCCCCACCGGATGTGACCCCGGTCTTGATTCGCTTGACGCTGCTG” was tested. Which binding signal (log fluorescence intensity) did it give?
**A.** Its binding signal (log fluorescence intensity) is 10.3.

**Q.** Which binding signal (log fluorescence intensity) does the source give for “TAAAGTGAAGACGGTTGTGGTAGTTCCGGGTATTAAGTCTTGATTCGCTTGACGCTGCTG” here?
**A.** The binding signal (log fluorescence intensity) was 11.

**Q.** “TGTCGGGTAAGGGAATGTAGATCACGTGAATGAAACGTCTTGATTCGCTTGACGCTGCTG” was tested. Which binding signal (log fluorescence intensity) did it give?
**A.** The binding signal (log fluorescence intensity) was 8.81.

**Q.** For “GGAAAAAGGCCCAGGGTAACACCGGAAGTGGGGTTAGTCTTGATTCGCTTGACGCTGCTG”, which binding signal (log fluorescence intensity) is on record?
**A.** The binding signal (log fluorescence intensity) was 10.9.

**Q.** “TAAAGGGAAGACGGTTGTGGTAGTCCCGGGTATTAAGTCTTGATTCGCTTGACGCTGCTG” was tested. Which binding signal (log fluorescence intensity) did it give?
**A.** Its binding signal (log fluorescence intensity) is 8.96.

**Q.** How did the binding signal (log fluorescence intensity) turn out when “GGAAAAAGGCCCAGGGGAACACCGGAAGTGGGCTTAGTCTTGATTCGCTTGACGCTGCTG” was run?
**A.** The binding signal (log fluorescence intensity) was 10.7.

**Q.** How did the binding signal (log fluorescence intensity) turn out when “TGCCGGGTAAGGGAATGTAGATCACGTGAATGAAAAGTCTTGATTCGCTTGACGCTGCTG” was run?
**A.** The binding signal (log fluorescence intensity) was 8.85.

**Q.** “GTGTATAGGTTCCCATCCAACACACGTGTTAAAATGGTCTTGATTCGCTTGACGCTGCTG” was tested. Which binding signal (log fluorescence intensity) did it give?
**A.** The binding signal (log fluorescence intensity) was 8.89.

**Q.** For “TATAGGGAAGACGGTTGTGGTAGTTCCGGGTATTAAGTCTTGATTCGCTTGACGCTGCTG”, which binding signal (log fluorescence intensity) is on record?
**A.** Its binding signal (log fluorescence intensity) is 11.2.

**Q.** With “GATTACTTTCTGCCCTTATTCGCACGTGCCATAACAGTCTTGATTCGCTTGACGCTGCTG” as the sequence, how does the binding signal (log fluorescence intensity) read?
**A.** Its binding signal (log fluorescence intensity) is 8.82.

**Q.** Which binding signal (log fluorescence intensity) does the source give for “TACTGACTTATATATGTGAATGCACATGAATAGACCGTCTTGATTCGCTTGACGCTGCTG” here?
**A.** The binding signal (log fluorescence intensity) was 8.85.

**Q.** Which binding signal (log fluorescence intensity) does the source give for “CGGAAGTGTCGTATACGTCGGATATCCGGTTCTTCTGTCTTGATTCGCTTGACGCTGCTG” here?
**A.** The binding signal (log fluorescence intensity) was 12.5.

**Q.** With “GCTGCTGCGGTGCATACCCCACCGGATGTGACCTCGGTCTTGATTCGCTTGACGCTGCTG” as the sequence, how does the binding signal (log fluorescence intensity) read?
**A.** Its binding signal (log fluorescence intensity) is 10.1.
